This passage reports cAMP reporter score and surface expression score results from the GPR68 mutational scans of Howard et al. (2025).

B1: GPR68, Q15743 (parent)
chain: MGNITADNSSMSCTIDHTIHQTLAPVVYVTVLVVGFPANCLSLYFGYLQIKARNELGVYLCNLTVADLFYICSLPFWLQYVLQHDNWSHGDLSCQVCGILLYENIYISVGFLCCISVDRYLAVAHPFRFHQFRTLKAAVGVSVVIWAKELLTSIYFLMHEEVIEDENQHRVCFEHYPIQAWQRAINYYRFLVGFLFPICLLLASYQGILRAVRRSHGTQKSRKDQIQRLVLSTVVIFLACFLPYHVLLLVRSVWEASCDFAKGVFNAYHFSLLLTSFNCVADPVLYCFVSETTHRDLARLRGACLAFLTCSRTGRAREAYPLGAPEASGKSGAQGEEPELLTKLHPAFQTPNSPGSGGFPTGRLA

Series [1] covers variants of B1. Nature of the series: cAMP reporter score (Enrich2 score, wild type = 0); higher = more signal; HEK293T, FACS bins.
Variants of B1 are the subject of series [2]. Kind of series: surface expression score (Enrich2 score, wild type = 0); higher = more signal; HEK293T, FACS bins.

Scores with a large standard error are left out. The source holds two more conditions with little spread; they are left out. In variant names, del marks residues removed and ins residues inserted between the two positions. For part of these data: The data file names ogerin without a concentration.

As to C40Q, the cAMP reporter score in series [1] (pH 5.5) is -1.17; in series [1] (pH 6) it was -1.27; in series [1] (pH 6, modulator: ogerin), -1.51; in series [1] (pH 6.5, modulator: ogerin), -1.24. In series [2], the surface expression score is -2.41.
For L48_Q49del, the cAMP reporter score in series [1] (pH 5.5) is -1.73; in series [1] (pH 6), -0.838; in series [1] (pH 6, modulator: ogerin), -1.62. In addition, in series [2], the surface expression score is -1.64.
For G46Y, the cAMP reporter score is -0.164 in series [1] (pH 5.5); -0.834 in series [1] (pH 6); -0.368 in series [1] (pH 6, modulator: ogerin); -1.16 in series [1] (pH 6.5, modulator: ogerin). Also, the surface expression score in series [2] was -1.33.
Regarding G46P, the cAMP reporter score was -1.49 in series [1] (pH 5.5); -1.35 in series [1] (pH 6); -2.15 in series [1] (pH 6, modulator: ogerin); -1.2 in series [1] (pH 6.5, modulator: ogerin). Moreover, the surface expression score in series [2] is -2.38.
G46R: the cAMP reporter score in series [1] (pH 5.5) is -2.84; in series [1] (pH 6), -1.53; in series [1] (pH 6, modulator: ogerin) it was -1.62; in series [1] (pH 6.5, modulator: ogerin), -1.64. Further, the surface expression score in series [2] is -2.56.
For G46I, the cAMP reporter score was -0.085 in series [1] (pH 5.5); -0.806 in series [1] (pH 6); -1.82 in series [1] (pH 6, modulator: ogerin); -0.72 in series [1] (pH 6.5, modulator: ogerin). Moreover, in series [2], the surface expression score is -1.69.
Regarding G46C, the cAMP reporter score in series [1] (pH 5.5) was -0.324; in series [1] (pH 6) it was -2.08; in series [1] (pH 6, modulator: ogerin), -0.883; in series [1] (pH 6.5, modulator: ogerin), -0.813. Besides, in series [2], the surface expression score is -0.484.
As to G46V, the cAMP reporter score in series [1] (pH 5.5) was -0.834; in series [1] (pH 6), -0.291; in series [1] (pH 6.5, modulator: ogerin) it was -1.31. In addition, in series [2], the surface expression score was -2.36.
With G46E, the cAMP reporter score in series [1] (pH 5.5) is -1.41; in series [1] (pH 6), -1.04; in series [1] (pH 6, modulator: ogerin), -0.975; in series [1] (pH 6.5, modulator: ogerin) it was -1.05. Besides, the surface expression score in series [2] is -2.85.
Consider G46D, for which the cAMP reporter score in series [1] (pH 5.5) was -0.301; in series [1] (pH 6), -1.63; in series [1] (pH 6, modulator: ogerin), -1.87; in series [1] (pH 6.5, modulator: ogerin), -0.784. The surface expression score in series [2] is -2.41.
G46N: the cAMP reporter score in series [1] (pH 5.5) was 0.098; in series [1] (pH 6, modulator: ogerin), 0.556; in series [1] (pH 6.5, modulator: ogerin) it was 0.655.
For G46Q, the cAMP reporter score in series [1] (pH 5.5) was -0.456; in series [1] (pH 6) it was -0.287; in series [1] (pH 6, modulator: ogerin), -1.12; in series [1] (pH 6.5, modulator: ogerin), -0.631. Further, in series [2], the surface expression score was -1.45.
In the case of G46K, the cAMP reporter score is -0.918 in series [1] (pH 5.5); -2.46 in series [1] (pH 6, modulator: ogerin); -1.94 in series [1] (pH 6.5, modulator: ogerin). Also, the surface expression score in series [2] is -2.12.
Take G46F: the cAMP reporter score in series [1] (pH 5.5) was -1.04; in series [1] (pH 6), -0.47; in series [1] (pH 6, modulator: ogerin) it was -1.67; in series [1] (pH 6.5, modulator: ogerin) it was -0.511. The surface expression score in series [2] was -2.24.
G46T: the cAMP reporter score in series [1] (pH 5.5) is 0.738; in series [1] (pH 6), 0.006; in series [1] (pH 6, modulator: ogerin) it was 0.666; in series [1] (pH 6.5, modulator: ogerin), -0.611. In series [2], the surface expression score is -2.1.
G46S: the cAMP reporter score in series [1] (pH 5.5) was -0.48; in series [1] (pH 6), 1.18; in series [1] (pH 6, modulator: ogerin), -0.422; in series [1] (pH 6.5, modulator: ogerin) it was -0.704. The surface expression score in series [2] is -0.406.
Consider G46A, for which the cAMP reporter score is 0.609 in series [1] (pH 5.5); 0.846 in series [1] (pH 6); 0.216 in series [1] (pH 6, modulator: ogerin); -0.033 in series [1] (pH 6.5, modulator: ogerin). Moreover, the surface expression score in series [2] was 1.41.
Regarding G46L, the cAMP reporter score was -1.56 in series [1] (pH 5.5); -0.36 in series [1] (pH 6); -1.08 in series [1] (pH 6, modulator: ogerin); -0.854 in series [1] (pH 6.5, modulator: ogerin). In addition, in series [2], the surface expression score was -2.11.
G46W: the cAMP reporter score is -1.2 in series [1] (pH 5.5); -1 in series [1] (pH 6); -1.49 in series [1] (pH 6, modulator: ogerin); -1.32 in series [1] (pH 6.5, modulator: ogerin). In addition, in series [2], the surface expression score is -1.77.
G46H: the cAMP reporter score in series [1] (pH 5.5) was 0.209; in series [1] (pH 6) it was 4.2; in series [1] (pH 6, modulator: ogerin), 1.23. For the same variant, the surface expression score in series [2] was -2.39.
Consider Q49_I50del, for which the cAMP reporter score was -2.01 in series [1] (pH 5.5); -0.173 in series [1] (pH 6); -1.79 in series [1] (pH 6, modulator: ogerin); -1.13 in series [1] (pH 6.5, modulator: ogerin). In addition, the surface expression score in series [2] was -1.77.
Consider L43_Y44insGS, for which the cAMP reporter score in series [1] (pH 5.5) is -0.378; in series [1] (pH 6), -0.521; in series [1] (pH 6, modulator: ogerin), -0.304; in series [1] (pH 6.5, modulator: ogerin), -0.207. In addition, the surface expression score in series [2] is -2.67.
Take L41del: the cAMP reporter score was -1.65 in series [1] (pH 5.5); -0.953 in series [1] (pH 6); -1.2 in series [1] (pH 6, modulator: ogerin); -0.69 in series [1] (pH 6.5, modulator: ogerin). For the same variant, the surface expression score in series [2] was -2.29.
For L41C, the cAMP reporter score is -1.05 in series [1] (pH 5.5); -0.714 in series [1] (pH 6); -0.888 in series [1] (pH 6, modulator: ogerin); -0.457 in series [1] (pH 6.5, modulator: ogerin). Besides, the surface expression score in series [2] is -1.38.
L41D: the cAMP reporter score is -0.43 in series [1] (pH 5.5); -1.11 in series [1] (pH 6); -0.696 in series [1] (pH 6, modulator: ogerin); -0.19 in series [1] (pH 6.5, modulator: ogerin).
For L41R, the cAMP reporter score in series [1] (pH 5.5) is -1.48; in series [1] (pH 6), -1.23; in series [1] (pH 6, modulator: ogerin), -1.71; in series [1] (pH 6.5, modulator: ogerin), -0.73. For the same variant, in series [2], the surface expression score is -1.88.
Turning to L41A, the cAMP reporter score in series [1] (pH 5.5) is 0.731; in series [1] (pH 6) it was 0.527; in series [1] (pH 6, modulator: ogerin) it was 0.056; in series [1] (pH 6.5, modulator: ogerin), -0.408.
With L41E, the cAMP reporter score in series [1] (pH 5.5) is -1.57; in series [1] (pH 6) it was -0.18; in series [1] (pH 6, modulator: ogerin), -1.89; in series [1] (pH 6.5, modulator: ogerin), -1.48. Further, in series [2], the surface expression score was -3.06.
For the variant L41Y, the cAMP reporter score was -0.673 in series [1] (pH 5.5); -0.338 in series [1] (pH 6); -0.295 in series [1] (pH 6, modulator: ogerin); -0.783 in series [1] (pH 6.5, modulator: ogerin). In addition, in series [2], the surface expression score was -1.32.
For the variant L41G, the cAMP reporter score in series [1] (pH 5.5) was -0.931; in series [1] (pH 6), -0.345; in series [1] (pH 6.5, modulator: ogerin), -0.588. Also, the surface expression score in series [2] was -1.89.
As to L41K, the cAMP reporter score in series [1] (pH 5.5) was -1.51; in series [1] (pH 6), -1.37; in series [1] (pH 6.5, modulator: ogerin) it was -0.589. Further, in series [2], the surface expression score is -1.66.
Consider L41Q, for which the cAMP reporter score in series [1] (pH 5.5) is -1.51; in series [1] (pH 6) it was -1.88; in series [1] (pH 6, modulator: ogerin), -2.27; in series [1] (pH 6.5, modulator: ogerin) it was -1.68. Further, in series [2], the surface expression score was -1.98.
